B1: LINE1-mini (parent)
chain: GGCAGAGCUCAACACAGCGUGGCAAAGUGGCUGUGGCUAGACUGCC

Read counts are not given, so values of variants with three or more changes are uncertain.

The data set covers variants of B1. The experiment in a line: self-cleavage, relative activity (ratio to wild type); higher = more cleavage; in vitro, sequencing; the parent is a self-cleaving ribozyme.
Turning to G2A C10A C18A G19U, the self-cleavage was found to be 0.04. The value for G2A C10U A16G C18U G30U was 0.03; that for G2A A11C C13U G27C G33A G40C was 0.04. To G2A A12G C45A belongs 0.14. The value for G2A C3A C18U A25C was 0.17; that for G2A C13G G17C C23A was 0.45. For the variant G2A C18G A25G, the self-cleavage worked out at 0.05.

As for G2A C13G G22C C23U G35A, the self-cleavage amounted to 1.12. For the variant G2A A11G A14C C18G U34A U43C, the self-cleavage worked out at 0.01. To G2A A11U G29C G40U G44U belongs 0.04; to G2A C18A G35A U38A, 0.13.

With G2A C23G U38C, the self-cleavage turned out to be 0.2. Take G2A G5C G19A C37A: the self-cleavage was found to be 0.2. To G2A A16C C23G belongs 0.08. Consider G2A C3U C13U A39G, for which the self-cleavage was 0.16. To G2A A16U G21A G27U belongs 0.18. With G2A C3U C8A A16U C31U G33U, the self-cleavage is 0.75. As for G2A A12C G36U, the self-cleavage turned out to be 0.06. In the case of G2A C10A G17A G29U A39U, the self-cleavage was determined as 0.04. For G2A A25C G44C, the self-cleavage came to 1.2.

With G2A C10A G22C, the self-cleavage stood at 0.06. On to G2A G5A C8G, for which the self-cleavage came to 0.14. To G2A C8G C15U belongs 0.1. The value for G2A G5U A6U G7U C15U G36A was 0.62; that for G2A C10U A25U A26U was 0.59; that for G2A C10A C18U C31U was 0.05.

G2A C10U G17U G22C G40C: the self-cleavage was found to be 0.05. Turning to G2A A11G C15U C45A, the self-cleavage was 0.04.

On to G2A C3G A16G G22U G33A, for which the self-cleavage is 0.04. For G2A C18U G22A U28C G36U U38A, the self-cleavage was determined as 0.03. Take G2A A11G G44A: the self-cleavage was 0.05. As to G2A A11G G44C, the self-cleavage came out at 0.03.

As for G2A C8A G29U, the self-cleavage was found to be 0.78. Regarding G2A C10A A12G U34G, the self-cleavage was 0.01. In the case of G2A C15U A26G, the self-cleavage was determined as 0.42. For G2A G5U A14U G29A G33A, the self-cleavage worked out at 0.07. Regarding G2A C3U C10U A39G G44U, the self-cleavage was 0.09. The value for G2A C10U A39G was 0.2; that for G2A C31U G40C C46G was 0.08; that for G2A A14G C15A C18A U34A C37A was 0.06. In the case of G2A C3A A11G G35U, the self-cleavage was found to be 0.28.

Regarding G2A A11U G17U, the self-cleavage amounted to 0.07. Consider G2A A14G C15A G21A G29U, for which the self-cleavage amounted to 0.23. Regarding G2A C31A C45A, the self-cleavage stood at 0.13. The value for G2A A14U G22A A26U G40C C42G was 0.22; that for G2A A12G C37G U38G A41C was 0.02. Turning to G2A C13U G33C, the self-cleavage amounted to 0.06. On to G2A C13A U20A G29U, for which the self-cleavage was 0.16. G2A C3G A6C A11G U20A G36C C42U C45A: the self-cleavage worked out at 0.01. G2A A25C G40A C45U: the self-cleavage came out at 0.13. The value for G2A A14U A16G A26G C45A was 0.26; that for G2A C8U A16G G35C was 0.26. For G2A A25G G36C, the self-cleavage is 0.03. As for G2A C23G G30A, the self-cleavage was 0.27. In the case of G2A C10A A39C, the self-cleavage stood at 0.06. The value for G2A C8U U38C C46U was 1.23. On to G2A C15A C18A G21U G30C G35A G40A, for which the self-cleavage is 0.01. On to G2A C10A G17U C31G, for which the self-cleavage came out at 0.15. Consider G2A C15G C46G, for which the self-cleavage turned out to be 0.04.

For G2A A11U C13G A39U, the self-cleavage worked out at 0.03. As to G2A A11U A39C, the self-cleavage is 0.1. Turning to G2A C13A C46A, the self-cleavage came out at 0.14. With G2A C31G A41C, the self-cleavage was found to be 0.17.

Turning to G2A C10A G36C U38G, the self-cleavage stood at 0.04.

G2A C8A C23A: the self-cleavage was found to be 0.5. As for G2A A12G G40U, the self-cleavage is 0.03. To G2A A12G G40A belongs 0.06.

Regarding G2A A24C C31U U34A C37G G44U, the self-cleavage was 0.02. As for G2A G5C G27C U38G A41G, the self-cleavage worked out at 0.03. The value for G2A C18G U38A C46G was 0.06. The value for G2A C18G G29C C46U was 0.11; that for G2A A11U A25U G33A C42A was 0.04. Consider G2A G5C G19U U38A, for which the self-cleavage was determined as 0.03. On to G2A C13U C45A, for which the self-cleavage was 0.02.

Consider G2A C10U A11U A25U, for which the self-cleavage came to 0.1.

For the variant G2A A16G U32C C45G, the self-cleavage was determined as 0.16.

Take G2A C10G C23G G27U: the self-cleavage came to 0.07. Regarding G2A C10A C23A U32G, the self-cleavage was determined as 0. Consider G2A A24C G27A G40U, for which the self-cleavage stood at 0.11. For the variant G2A C23A C42U, the self-cleavage turned out to be 1.39. The value for G2A A6U G30C G35U was 0.15. In the case of G2A C18U A24U U34G G40C, the self-cleavage was 0.01.

On to G2A C15A C18A U34C, for which the self-cleavage stood at 0.07.

Take G2A G5A C31G G33C: the self-cleavage came out at 0.2. G2A C37G U38C: the self-cleavage was 0.11. As to G2A A12G G35C, the self-cleavage was determined as 0.07. Consider G2A C13A C15G U20G, for which the self-cleavage was 0.08. In the case of G2A G5A A14U U34G C46U, the self-cleavage was determined as 0.32. With G2A A11C G22A G33A, the self-cleavage was found to be 0.03. G2A C3U A6U C8U U38C C46A: the self-cleavage was 0.4. Consider G2A C3U U28C, for which the self-cleavage was determined as 1.04. With G2A C8U G22U U28A G36U C37U, the self-cleavage was 0.02. To G2A C8U C10U G29U C46A belongs 0; to G2A A24U U38G, 0.06; to G2A A26G U38A, 0.56.

On to G2A A16C G29A U34C C37A A39C, for which the self-cleavage amounted to 0.17.

Take G2A A24C C31A G35A A41U G44U C46A: the self-cleavage turned out to be 0.01. As to G2A G5C C15G C18A, the self-cleavage is 0.04. On to G2A A25U G33C, for which the self-cleavage was found to be 0.07. With G2A C37G C46G, the self-cleavage was 0.17. In the case of G2A A14U C31G, the self-cleavage was determined as 0.02.

For G2A A24U U34G A39U, the self-cleavage came out at 0.12.

Turning to G2A C3U G5C C13A C23U G35U C45U, the self-cleavage was 0.29. On to G2A C13U C15G G22C G33A U43C C46G, for which the self-cleavage stood at 0.09.

With G2A A12G G19A C46A, the self-cleavage stood at 0.04.

As for G2A C13A A25U G35U, the self-cleavage was found to be 2.34.

As to G2A C8G G35C A39U, the self-cleavage was determined as 0.03.

On to G2A A26U G30C C37A U38A A41C, for which the self-cleavage was determined as 0.03. Turning to G2A A24G C42A, the self-cleavage was 0.37. To G2A C13U G40A G44U belongs 0.28. As for G2A G5A G7C G29A C31U, the self-cleavage came out at 0.18. The value for G2A C3A G19U was 1.75; that for G2A A12G A16C G30C was 0.11.

Take G2A C13G U28G U32A: the self-cleavage was determined as 0.03.

For the variant G2A C3G U20C U32A G33U, the self-cleavage is 0.17. Turning to G2A A11G A24C C37G U43A, the self-cleavage amounted to 0. As to G2A C3G A16G C46A, the self-cleavage came out at 0.02. On to G2A C3A G7A A39U G44U, for which the self-cleavage worked out at 0.5. Take G2A A24U A26C C45A: the self-cleavage was determined as 0.32. As to G2A A16G C18A G19C U20C A24C G36C C45G, the self-cleavage came out at 0.01. On to G2A G5U C8G, for which the self-cleavage turned out to be 0.04. The value for G2A C18U G33C was 0.03. For the variant G2A A12G G27A, the self-cleavage was 0.04. For the variant G2A C18A G22C A24C U28A, the self-cleavage is 0.09.

For G2A C15G G19A U28A G33C, the self-cleavage is 0.07. Turning to G2A C13A C15U G21U C31U U43A, the self-cleavage worked out at 0.63. G2A C13G G22A G27A: the self-cleavage amounted to 1.23. The value for G2A A11U U34G A39G was 0.01; that for G2A A16U C37A was 0.09; that for G2A C31A G44C was 0.04.

As to G2A C15G G21A G40A, the self-cleavage turned out to be 0.03. Turning to G2A C3U A11C G22U, the self-cleavage was 0.1. G2A C15A C23U A41G: the self-cleavage turned out to be 0.11. Regarding G2A C3A A6G C8A U32A U38A G40A, the self-cleavage was 0.13. G2A A11U A16G U32G G36U U38A: the self-cleavage was 0.02. The value for G2A C3U C8G U28A was 0.07; that for G2A C18A G33A U34C was 0.07; that for G2A A16G C46A was 0.19. Turning to G2A C13U U43A, the self-cleavage was determined as 0.09. For G2A C15U G22C A25C G44C, the self-cleavage was determined as 0.1.

For the variant G2A C13G C42U, the self-cleavage came out at 0.13. For the variant G2A C3A G44U C46A, the self-cleavage worked out at 1.97. For G2A C8A C18U G27U G33U, the self-cleavage is 0.25.

G2A A6U U9G A12G C13U A16G: the self-cleavage came out at 0.

Take G2A A11G C18A: the self-cleavage is 0.03.

For the variant G2A C8A C15A U38C G40U, the self-cleavage was 0.08. As for G2A C8A C18U C23G, the self-cleavage was determined as 0.68.

Consider G2A G5C C15U A39U, for which the self-cleavage was 0.04. Regarding G2A C8A G40U A41C, the self-cleavage came out at 0.06. As for G2A C13U G29U, the self-cleavage was 1.19. As to G2A A12C C15A G17A A24G G27U C31G, the self-cleavage is 0.01. The value for G2A C3G G5A C8G U9G G17A was 1.55; that for G2A C8U C23A was 0.33. For the variant G2A C23U G33A, the self-cleavage stood at 0.26. As for G2A A11G C31A, the self-cleavage came to 0.05.

Turning to G2A C10U C13G, the self-cleavage was 0.05.

As to G2A C18U G35U, the self-cleavage was determined as 0.12.

G2A C8G C15G G44U: the self-cleavage turned out to be 0.05. For G2A C8A U34C G35U, the self-cleavage came to 0.71. Regarding G2A A14G G17A A39G, the self-cleavage was determined as 0.08. In the case of G2A A16C G27U U32A G40A G44U, the self-cleavage was 0.31.

With G2A A25U A39C, the self-cleavage came to 0.3. Consider G2A C3U G30U, for which the self-cleavage amounted to 1.59. For the variant G2A C15U G29A G40U, the self-cleavage was 0.69. For G2A A14G U43A, the self-cleavage turned out to be 0.4.

G2A C8U C13U A14U G17A U32C G33A: the self-cleavage was determined as 0.49. The value for G2A A25U A26U was 0.61.

For the origin of these results see the RNAGym collection of RNA variant scans (doi:10.7554/elife.90254).
